The values that follow come from PubChem BioAssay (NCI).

Where “and” joins values, the source holds several entries; their conditions need not be identical. Equal entries are not always repeated.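 Cells were grown in 96-well plates and exposed to each compound for 48 hours at five concentrations; endpoints were interpolated linearly between bracketing concentrations, or set to the highest concentration if not reached. GI50 = concentration required for 50% inhibition of growth. TGI marks complete inhibition of growth.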 Peptide text beside a SMILES is read from it.

This experiment has as its system NCI-H322M lung. Put plainly: inhibition of tumour cell growth, NCI panel, 48 h.
`Cc1nn(-c2ccc([N+](=O)[O-])cc2)c2ncnc(N/N=C/c3ccccc3O)c12`: the GI50 is 0.23 µM and the TGI is more than 100 µM.

In the case of `COc1cccc(C2c3cc4c(cc3OC(Nc3ccccc3)C2C)OCO4)c1OC` (stereo not drawn), the TGI was more than 100 µM.

On to `CN(C)c1ccc(C=C2C(=O)NC(=S)NC2=O)c2ccccc12`, for which the TGI is more than 100 µM. In the case of `COc1ccccc1CNCCCN1C(=O)c2ccc3c4c(ccc(c24)C1=O)C(=O)N(CCCN)C3=O`, the GI50 is 1.86 µM and the TGI stood at 3.61 µM. The like results for `COc1cccc(-c2cc3c4c(nc5ccccc53)C(=O)c3cccnc3-c4n2)c1` were, in that order, 2.75 µM and 7.63 µM. Consider `COC1=C(C)C(=O)c2c(cc3c(c2O)C(C)(CCC=C(C)C)C(C)O3)C1=O` (stereo not drawn), for which the TGI came out at 35.1 µM. As for `Nc1c(C(=O)c2cccc(-c3cccnc3)c2)cnn1-c1ccc(F)cc1F`, the GI50 is more than 13.1 µM and the TGI is more than 25 µM. Take `N#Cc1c(-c2ccccc2)c(CN2CCCCC2)c(=O)n2c1[nH]c1ccccc12`: the TGI was more than 100 µM. Same read-out and setting: for `CNc1nc(C(N)=O)c(N)s1` the value was more than 100 µM; for `Cn1cc(-c2csc(-c3cn(C)c4ccccc34)n2)c2ccccc21`, more than 100 µM; for `O=c1oc2cc(O)ccc2c(O)c1Cc1c(O)c2ccc(O)cc2oc1=O`, more than 100 µM. Still for that read-out and setting: with `Cc1[nH]c(=O)nc(NNCc2ccc(Cl)cc2)c1C(=O)Nc1ccc(Cl)cc1` the figure was more than 100 µM; with `O=C(OCCNC(=O)N1CC1)OCCNC(=O)N1CC1`, more than 10 µM; with `CC(C)C[C@H](NC(=O)[C@H](CC(C)C)NC(=O)[C@@H](Cc1c[nH]c2ccccc12)NC(=O)[C@H](Cc1ccccc1)NC(=O)[C@@H](Cc1c[nH]c2ccccc12)NC(=O)[C@H](CCC(N)=O)NC(=O)[C@H](CCC(N)=O)NC(=O)[C@H]1CCCN1C(=O)[C@@H](N)CCCCN)C(N)=O` (HELM PEPTIDE1{K.[dP].Q.Q.[dW].F.[dW].L.L.[am]}$$$$V2.0), more than 100 µM.

For `Cn1c(N)nc(-c2ccc(Cl)cc2)c1SSc1c(-c2ccc(Cl)cc2)nc(N)n1C`, the TGI amounted to 33.9 µM. For `O=C1C(SCCO)=C(SCCO)C(=O)N1c1ccc(-c2ccccc2)cc1`, the GI50 is 10.6 µM and the TGI came to 37.1 µM.

Turning to `CC1(C)CC2CC(CC(C)(C)C2=O)C1=O`, the TGI is more than 100 µM. On the same count and under the same terms, for `c1ccc(CSC2(SCc3ccccc3)CCCCC2)cc1` the value was more than 10 µM. `Cc1cnc2[nH]c(-c3ccc4ccccc4c3)cc(=O)c2c1` displayed a TGI of more than 100 µM. For the compound `CC(=O)O[C@H]1CCC2[C@@H]3CCC4c5nonc5CC[C@]4(C)C3CC[C@@]21C` (stereo partly drawn), the TGI was more than 10 µM. With `C=C1C[C@H](O)[C@H](Br)C(C)(C)C12CCC(C)(Cl)C(Br)C2` (stereo partly drawn), the TGI turned out to be 5.36 µM. Same read-out and setting: with `CCOc1ccc(NC(=O)C(=O)C(C(=O)c2ccc3ccccc3c2)C2OC(=O)c3ccccc32)cc1` (stereo not drawn) the figure was 67.6 µM; with `ClCCCCCc1c2nc(c(CCCCCCl)c3ccc([nH]3)c(CCCCCCl)c3ccc([nH]3)c(CCCCCCl)c3nc1C=C3)C=C2`, more than 100 µM; with `O=C(Nc1ccc(Cl)cc1)c1cc(S(=O)(=O)Nc2nnc3c(Cl)cc(C(F)(F)F)cn23)c(S)cc1Cl`, more than 100 µM. The same measure, in the same setting: for `COC(=O)/C=C1/OC(c2ccc(OC)cc2)=C(Cl)C1=O` the value was 50.7 µM; for `CCOc1ccc(N/C(=C(/C(Cl)=C(/Cl)NC(C)(C)C)[N+](=O)[O-])n2nnc3ccccc32)cc1`, more than 100 µM. Compound `COc1cccc(NC(=O)CC(=O)N2N=C(N3c4ccccc4Sc4ccccc43)CC2c2ccccc2)c1` (stereo not drawn) gave a TGI of more than 100 µM.

Regarding `O=CN1CCN(C(=O)c2ccc(Cl)c(Cl)c2)C1=S`, the TGI came out at 31.3 µM. As to `C=C1c2ccoc2C[C@H]2[C@H]1CC[C@@]1(O)[C@@](C)(C(=O)OC)CCC[C@]21C`, the GI50 is 84.3 µM and the TGI was more than 100 µM. For the compound `O=[N+]([O-])c1ccc(N=Nc2ccc(O)c3ccccc23)cc1`, the GI50 is 9.85 µM and the TGI is more than 100 µM. Compound `O=C(N/N=C(/COc1ccccc1)N=Cc1cccnc1)c1ccncc1` gave a TGI of more than 100 µM. `O=C1/C(=N\O)S(=O)(=O)c2ccccc21` registered a TGI of more than 100 µM. Turning to `O=C(Nc1ccc(Oc2cccc(F)c2)c(Cl)c1)c1cnccn1`, the GI50 is 2.59 µM and the TGI is more than 50 µM.

`COc1cc(OC)c(C(=O)/C=C/c2cccc(C#N)c2)c(OC)c1`: the GI50 is 1.49 µM and the TGI stood at 5.62 µM.

On to `O=S(=O)(c1cccc2c(I)cccc12)N1CCCNCC1`, for which the GI50 was 15.7 µM and the TGI was 30.5 µM. On to `COc1ccc2nc3cccc([N+](=O)[O-])c3c(NCCCO)c2c1`, for which the GI50 is 0.0047 µM and 0.0229 µM. In the case of `CN(C)Cc1cc(N=Nc2ccc(Cl)cc2)cc(CN(C)C)c1O`, the TGI came to 27.9 µM. Still for that read-out and setting: for `O=C(O)c1nc(-c2ccc(Cl)c(Cl)c2)nc2ccc(Cl)cc12` the value was more than 100 µM. As to `NCCN.O=C([O-])CN1CCOCC1.[OH-].[Pt+4]`, the GI50 is more than 100 µM and the TGI is more than 100 µM. Consider `N#CSCc1ccc(Cl)c(CSC#N)c1`, for which the GI50 was more than 39.1 µM and the TGI is more than 75.1 µM.

The compound `CCN1CN(c2ccccc2)C2(CCN(CC(CC3OCCO3)c3ccc(F)cc3)CC2)C1=O` (stereo not drawn) yielded a TGI of more than 56.7 µM. Same read-out and setting: with `O=C(NNC(=O)c1csc(NC(=S)NC2CCCCC2)n1)c1ccccc1` the figure was 41.3 µM. In the case of `N#Cc1nc2c(S(=O)(=O)c3ccc(Cl)cc3)c(N)n(CCCN3CCOCC3)c2nc1C#N`, the GI50 was 21.1 µM and the TGI was more than 100 µM.

The compound `CCn1cnnc1-c1nsc2ccccc12` returned a TGI of more than 100 µM.

In the case of `O=[N+]([O-])c1ccc(N2CCC(CCCC3CCN(c4ccc([N+](=O)[O-])cc4[N+](=O)[O-])CC3)CC2)c([N+](=O)[O-])c1`, the TGI was 30.2 µM. On the same count and under the same terms, for `COc1ccc(NC(=S)c2ccoc2C)cc1CC(=O)OC(C)C` the value was more than 100 µM. Take `COc1cc([N+](=O)[O-])c(OC)cc1-c1nc2sccn2c1/C=N/N=C(N)N`: the GI50 was 14.6 µM and the TGI came out at 43.3 µM. Take `CC1=C(C(=O)N[C@@H](CC(C)C)C(=O)O)N2C(=O)[C@@H](NC(=O)C(N)c3ccccc3)[C@H]2SC1` (stereo partly drawn): the TGI was more than 100 µM. For `OC1CSc2nc3ccccc3n2C1` (stereo not drawn), the TGI was more than 100 µM. Regarding `CC(=O)[CH-]C(=O)c1ccccc1.CC(=O)[CH-]C(=O)c1ccccc1.CC(=O)[CH-]C(=O)c1ccccc1.[In+3]`, the GI50 is more than 100 µM and the TGI was more than 100 µM. For the compound `CSc1nc2c(c(=O)[nH]1)N=C(c1ccccc1)CC(c1ccccc1)N2` (stereo not drawn), the TGI is more than 100 µM. The compound `CCOC(=O)c1nc2ccc(C(F)(F)F)cc2nc1Oc1ccc(C(=O)OC)cc1` returned a TGI of more than 100 µM. Same read-out and setting: for `O=C(c1ccc(Cl)cc1)N(C(=S)OCCOc1ccccc1)c1ccccc1` the value was 59.4 µM. Consider `COc1ccc(CC(=O)c2ccc(O)cc2O)cc1`, for which the GI50 is more than 100 µM and the TGI is more than 100 µM. For the compound `COc1cnc2c(c1)C(=O)c1c-2n(CCCNC2=NCCS2)c(=O)c2cc(Cl)ccc12`, the GI50 was 1.54 µM and the TGI amounted to 3.68 µM. Compound `CC[C@H](CO)Nc1nc(NCc2ccccc2)c2ncn(C(C)C)c2n1` registered a TGI of more than 100 µM.
